SMILES strings stand for the structures. The campaign covered roughly 48,000 compounds. About 550 (1.1%) were called active. Not shown: some 4% with an inconclusive outcome. No stated cut-off is given here; in the data, active means potency below about 15 µM; inconclusive means mostly about 16 µM to 33 µM; inactive means weaker than that. The list shows a part of the results.
Potency means the concentration at half of the fitted maximal effect.

For the assay, the target named is Lysosomal acid glucosylceramidase (Homo sapiens) (UniProt P04062). The experiment in a line: Glucocerebrosidase.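 Further: the screen sought inhibitors.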 Particulars: purified enzyme, resorufin glucoside fluorescence (screen aimed at inhibitors), 20 min; series mostly up to 77 µM. Put shortly: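 Compounds titrated against 0.2 nM normal enzyme, 30 uM resorufin beta-D-glucopyranoside substrate, citrate/phosphate buffer with taurocholate and tween-20, pH 5.9. Reaction ran 20 min at room temperature; fluorescence (Ex 548/Em 600) gave AC50.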
UniProt P04062, sequence (P04062 whole entry, looked up): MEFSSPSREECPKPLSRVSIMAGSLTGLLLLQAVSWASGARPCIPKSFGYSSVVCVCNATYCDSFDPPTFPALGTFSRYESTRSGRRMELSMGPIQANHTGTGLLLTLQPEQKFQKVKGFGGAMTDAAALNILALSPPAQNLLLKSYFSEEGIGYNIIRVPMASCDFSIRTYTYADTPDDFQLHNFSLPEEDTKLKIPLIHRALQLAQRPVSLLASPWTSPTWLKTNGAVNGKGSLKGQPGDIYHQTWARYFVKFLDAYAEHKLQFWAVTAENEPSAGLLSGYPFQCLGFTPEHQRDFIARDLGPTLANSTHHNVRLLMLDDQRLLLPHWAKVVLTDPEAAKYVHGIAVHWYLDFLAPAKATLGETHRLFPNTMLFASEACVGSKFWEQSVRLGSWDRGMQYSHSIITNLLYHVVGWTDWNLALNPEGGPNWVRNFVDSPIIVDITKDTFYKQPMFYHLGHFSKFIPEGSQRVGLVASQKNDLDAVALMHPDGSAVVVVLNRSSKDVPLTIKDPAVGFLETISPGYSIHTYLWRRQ
Regarding `CCSc1nc2c(c(=O)[nH]1)C(c1ccncc1)C(C(=O)OC(C)C)=C(C)N2` (configuration not stated), the Potency was inactive: > 76.9 µM.

On to `CN(C(=O)c1ccc2c(c1)OCO2)C1(C(=O)NC2CCCCC2)CCCCC1`, for which the Potency is inactive: > 76.9 µM. Next, `Clc1ccc(-c2nn3c(-c4ccccc4)nnc3s2)cc1`: inactive: > 76.9 µM. For the compound `Cc1c(C(=O)NCc2ccc3c(c2)OCO3)oc2ccc(S(=O)(=O)N3CCCC3)cc12`, the Potency is inactive: > 76.9 µM. Regarding `CC(=O)c1ccc(S(=O)(=O)NCCCC(=O)NCCc2ccccn2)cc1`, the Potency was inactive: > 76.9 µM. Next, `Cc1ccc2[nH]c(C)c(CN(C)C3CCN(C)CC3)c(=O)c2c1`: inactive: > 76.9 µM.

Consider `O=C(C1CCN(S(=O)(=O)c2cccnc2)CC1)N1CCN(c2ccccc2Cl)CC1`, for which the Potency is inactive: > 76.9 µM.

`Cc1c(N(C(=O)Nc2ccccc2)C2=NCC(C)S2)c(=O)n(-c2ccccc2)n1C` (configuration not stated): the Potency was inactive: > 76.9 µM.

Turning to `O=C(COC(=O)c1n[nH]c2ccccc12)NC(=O)NCc1ccco1`, the Potency is inactive: > 76.9 µM. Next, `COc1ccccc1CNC(=O)c1ccc(NS(C)(=O)=O)cc1`: inactive: > 76.9 µM. Next, `C=CCn1c(SCC(=O)Nc2ccccc2C)nnc1-c1ccncc1`: inactive: > 76.9 µM. Next, `CC(OC(=O)c1cc2sccc2n1C)C(=O)NCc1ccco1` (configuration not stated): inactive: > 76.9 µM. As for `Cc1ccc2c(Cl)cc(Cl)c(OCc3c(C)noc3C)c2n1`, the Potency is inactive: > 76.9 µM.

For the compound `Cc1ccc2[nH]c(=O)c(CN(Cc3ccco3)S(=O)(=O)c3c(C)ccc4nsnc34)cc2c1`, the Potency entry is “inactive”. Regarding `COC(=O)c1c(NC(=O)CSc2nc3c(c(=O)n(C)c(=O)n3C)n2C(C)C)sc(C)c1C`, the Potency was inactive: > 76.9 µM. As to `O=C(Cc1c(C(=O)O)[nH]c2ccccc12)NC1CCN(Cc2ccccc2)CC1`, the Potency was inactive: > 76.9 µM.

Turning to `COc1ccc(C(c2nnnn2C2CCCC2)N2CCC(C)CC2)c(OC)c1` (configuration not stated), the Potency was inactive: > 76.9 µM. With `Cc1cc(NC(=O)CSc2nnc(-c3ccoc3C)o2)no1`, the Potency is inactive: > 76.9 µM.

`Cc1cc(NS(=O)(=O)c2ccc(C3CCCCC3)cc2)no1`: the Potency is inactive: > 76.9 µM. For the compound `CS(=O)(=O)N1CCN(c2nnc(-c3ccccc3)c3ccccc23)CC1`, the Potency is inactive: > 76.9 µM. As to `CC(C)C(OC(=O)c1ccco1)C(=O)NCc1cccs1` (configuration not stated), the Potency is inactive: > 76.9 µM. Next, `Cc1occc1C(=O)NCc1ccccn1`: inactive: > 76.9 µM. Next, `CCOC(=O)c1cnn2c(C(F)F)cc(C3CC3)nc12`: inactive: > 76.9 µM; `COc1ccc(OC)c(C(=O)Cn2nnc3ccccc3c2=O)c1`: inactive: > 76.9 µM; `O=C(O)Cc1coc(-c2ccc(F)cc2)n1`: inactive: > 76.9 µM.

`Cc1oc(C(=O)O)cc1COc1ccccc1Cl`: the Potency was inactive: > 76.9 µM. Consider `Cc1[nH]c2ccccc2c1C(=O)CN1CCC(C(N)=O)(N2CCCCC2)CC1`, for which the Potency was inactive: > 76.9 µM.

Regarding `CC(C)(C)NC(=O)CN(C(=O)C1CSC(=O)C1)c1ccc2c(c1)OCCO2` (configuration not stated), the Potency is inactive: > 76.9 µM. Next, `Cc1ccc(C2C(=O)N(C3CCCC3)CC(=O)N2CC2COc3ccccc3O2)cc1` (configuration not stated): inactive: > 76.9 µM.

`CC(C)CNc1nc(Oc2ccc(=O)n(-c3ccccc3)n2)nc(N2CCOCC2)n1`: the Potency is inactive: > 76.9 µM. Consider `COc1ccc(CC(NC(C)=O)C(=O)NC2CCN(C(=O)NCc3ccccc3)CC2)cc1OC` (configuration not stated), for which the Potency was inactive: > 76.9 µM. As to `CCOC(=O)C1CCCN(Cc2ccccc2C)C1` (configuration not stated), the Potency is inactive: > 76.9 µM.

For `CCOC(=O)C1=C(C)N=C2SCCC(=O)N2C1c1sccc1C` (configuration not stated), the Potency was inactive: > 76.9 µM.

In the case of `COc1ccc(-c2cc(-c3ccc(OC)cc3)[nH]n2)cc1`, the Potency was inactive: > 76.9 µM. Next, `COc1cc(C2c3c(-c4cc(C)cc(C)c4O)n[nH]c3C(=O)N2CCCO)cc(OC)c1OC` (configuration not stated): inactive: > 76.9 µM; `CCCn1c(=NC(C)=O)c(C(=O)OCC)cc2c(=O)n3ccccc3nc21`: inactive: > 76.9 µM. As to `c1ccc(CNC2=NCCC2)nc1`, the Potency was inactive: > 76.9 µM. Next, `Cn1c(N)c(C(=O)NCc2ccccc2)sc1=S`: inactive: > 76.9 µM. Next, `CCCCn1nc(NC(=O)c2cccs2)c2cc3cc(OC)ccc3nc21`: “inactive”; `CC(C)CC(c1nnnn1Cc1ccco1)N1CCN(C2CCCC2)CC1` (configuration not stated): inactive: > 76.9 µM; `O=C(O)c1cc(-c2ccc3c(c2)OCO3)nc2ccccc12`: inactive: > 76.9 µM. Turning to `Cc1ccc(C(=O)CSc2nnc(CNc3ccc(C)cc3C)o2)cc1`, the Potency is inactive: > 76.9 µM. Next, `O=C(CN1CCOCC1)Nc1ccccc1NC(=O)C1CCN(c2ncccn2)CC1`: inactive: > 76.9 µM; `Cc1ccc2cc(CN(CCN3CCOCC3)C(=O)NCc3ccccc3)c(=O)[nH]c2c1C`: inactive: > 76.9 µM.

Consider `O=c1c2ccccc2nnn1Cc1nnc(-c2ccccc2Br)o1`, for which the Potency was inactive: > 76.9 µM. Next, `O=C(Nc1nnc(COc2ccc(Cl)cc2)s1)C1CCCO1` (configuration not stated): inactive: > 76.9 µM; `CCCCN(CCCC)C(=O)CSc1nnc(-c2cc(OC)c(OC)c(OC)c2)o1`: inactive: > 76.9 µM; `COc1cccc(CNC(=O)c2nnn(CC(=O)Nc3ccc(C)c(C)c3)c2N)c1`: inactive: > 76.9 µM. Next, `COC(=O)c1cccc(NC(=O)CSc2nc(C)cc(=O)[nH]2)c1`: inactive: > 76.9 µM; `O=C(O)CCCC(=O)N1CC(=O)Nc2ccccc21`: inactive: > 76.9 µM. Next, `CC(=O)c1c(N2CCN(Cc3ccc4c(c3)OCO4)CC2)nc(=S)n(-c2ccccc2)c1C`: inactive: > 76.9 µM; `CCOc1ccccc1Oc1coc2cc(OC(=O)c3ccco3)ccc2c1=O`: inactive: > 76.9 µM; `CCOCC(=O)Nc1nnc(C2CCCCC2)s1`: inactive: > 76.9 µM.

On to `O=C1OC(N2CCN(C(=O)C3CCCO3)CC2)c2ccccc21` (configuration not stated), for which the Potency was inactive: > 76.9 µM.

With `O=C(Nc1ccc(OC(=O)c2ccncc2)cc1)c1ccncc1`, the Potency was active: 1.86 µM. Take `COc1ccc2c(Cl)c(-c3nnc4n3CCCCC4)sc2c1`: the Potency was inactive: > 76.9 µM. Next, `O=C(CCN1CCC(c2ccccc2)C1)c1cccs1` (configuration not stated): inactive: > 76.9 µM.

The values are drawn from PubChem BioAssay AID360 (National Center for Advancing Translational Sciences (NCATS), 2006).
